# Experimental data published in PubChem BioAssay AID504832 (National Center for Advancing Translational Sciences (NCATS), 2011).
# Out of some 310,000 compounds screened, about 18,000 (5.8%) were called active. The shares of active, inactive and inconclusive entries below differ from those in the screen. The call rests on the fitted dose curve; in most records, active means well fitted inhibition curve with a large enough effect; inconclusive means small, poorly fitted or top-dose-only effect, or another doubt; inactive means no such curve, though single readings can be large or run the other way. Potencies of inconclusive entries are left out as doubtful fits.
# Assay: Primary qHTS for delayed death inhibitors of the malarial parasite plastid, 48 hour incubation
# Settings: P. falciparum luciferase growth in erythrocytes; series mostly up to 28.7 µM
# In short: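 Luminescence readout; reporter = integrated firefly luciferase in P. falciparum. RBC culture at 2% hematocrit, 0.1% parasitemia final, 37 C/5% CO2; decreased signal taken as growth inhibition.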
# Potency means the concentration at half of the fitted maximal effect; tags describe the fitted curve by direction and shape.
row,SMILES,Potency
1,CCCc1ccc(-c2cc(C(=O)Nc3ccc([N+](=O)[O-])cn3)c3ccccc3n2)cc1,inactive
2,O=C(CS(=O)CC(=O)N(c1ccccc1)C(C(=O)NC1CCCC1)c1cccs1)Nc1ccc(F)cc1 (stereo not given),"inconclusive [inhibitor, partial curve, poor fit]"
3,O=C(CCc1nc2ccccc2c(=O)[nH]1)NCc1cccc(Cl)c1,inactive
4,Cc1ccc(S(=O)(=O)N(C)C)cc1NC(=O)CSc1nc2ccccc2c(=O)n1CC1CCCO1 (stereo not given),"inconclusive [inhibitor, partial curve]"
5,C=CCN(C(=O)c1csnn1)C(C(=O)NC1CCCCC1)c1ccc(F)cc1 (stereo not given),"inconclusive [inhibitor, partial curve, poor fit]"
6,Cc1onc(-c2c(Cl)cccc2Cl)c1C(=O)NC(=S)N1CCOCC1,"inconclusive [inhibitor, single point]"
7,CCCCCc1cc(=O)oc2c(C(CCN3CCCCC3)c3ccc4c(c3)OCO4)c(OC)cc(OC)c12 (stereo not given),active: 10.4 µM
8,Cn1nnnc1SCC(=O)Nc1ccc(Oc2ccccc2)cc1,"inconclusive [inhibitor, single point]"
9,CCN(CC(=O)N1CCC(C(N)=O)CC1)S(=O)(=O)c1ccc(Cl)cc1,inactive
10,CC1C2(C)OCC(C#N)(C(=N)O2)C1(C#N)C#N (stereo not given),"inconclusive [inhibitor, single point]"
11,CCOC(=O)CN1C(=O)S/C(=C/c2ccc(OCc3ccc(C(=O)O)cc3)cc2)C1=O,inactive
12,COc1ccc(C(=O)Nc2cnn(Cc3c(F)cccc3Cl)c2)cc1OC,"inconclusive [inhibitor, full curve]"
13,CCCn1nc(NS(=O)(=O)c2cccc3nonc23)c2cc3cc(C)ccc3nc21,"inconclusive [inhibitor, single point]"
14,Cc1nn(Cc2ccccc2)c(Cl)c1C(=O)OC(C)C#N (stereo not given),"inconclusive [inhibitor, partial curve]"
15,O=C(NNc1c(F)c(F)cc(F)c1F)c1ccc(Cl)nc1,inactive
16,O=S(=O)(c1ccc(NC(=S)NCc2cccnc2)cc1)N1CCCCC1,inactive
17,CCNC(=S)N/N=C/c1ccc(F)cc1,inactive
18,O=C(Nc1nc(-c2ccccn2)cs1)c1ccc([N+](=O)[O-])o1,active: 2.94 µM
19,CC1(C)Cc2nc(NC3CCCCC3)c(C#N)cc2CO1,active: 9.28 µM
20,COc1ccc(CCN2CC(C(=O)Nc3cc(F)ccc3F)CC2=O)cc1OC (stereo not given),"inconclusive [inhibitor, single point]"
